In all, about 2,300 sequences were measured (“median log2 fold change of GCK-ALFA target abundance (FLAG IP / Myc IP barcode read proportion)”: median about 0.095, lowest 2% from about -0.47 on). This is one part of the list.
B1: LC3A_28_773 (protein)
chain: MDVKENVEAAIAEAKEAVARGEEAVIRIEIPDGSTQEDIDTVIEGLKEIAEITKDMKRTSVVVDVDGGVKQEHLDKLAKAAEEIEEKYPNVTVIIALDEN
B2: LC3A_28_1122 (protein)
chain: SALREAWEKSLAQAKEEAEAGKDVVAEFTATNDMTEEDLEYLLEKIEEAAKYLSEHGQNSILVDLDMPNKPELRDRLIDGVDEIEKKYPSVNIVIALEED
B3: LC3A_free_39_2290 (protein)
chain: SMEELEEAVEEVEELLEEEPEISPEEKETILEAARQSLEVAKAIVEMLKDIKEAGGDVAAAVKRLADLIKAGKAAGLSQEELNAAVIEEAEDLRNLIPID
B4: LC3A_132_286 (protein)
chain: DEEKTKESVEKVKKIAEEAEKNAEDEEKVRKLLEELRKYLEEVEKTESPEVVAATSRTAAEELEKLAEKLEELGKEELALEADSLAIEAESRALRAEEAL
B5: LC3A_28_653 (protein)
chain: EEIEKELEKAIKEAEKAKKKGEPVVVTIKVSGKVNEEQLEKILETLEKIAELLKDIKGSAIIVDLDKDVPQEFEDKLIDKAEELEKKYPNVTVIIALEER
B6: LC3A_3_1558 (protein)
chain: MEEIREETLEELRRAGKSEEVLEAARRAFEALIERGYEEALRTLAEETRELIDLPDELLLAFFEDVLETIETEDLNEEELIEKIREIARITRNEGEIEEL
B7: LC3A_28_674 (protein)
chain: MELRERLEKALKEAEEAAKKGVPTVITVTIPADATEEEVEEAKKKLEEIAEILKDVKGSAIIVDLERGLKEEHRNEIIDKADELDEKYPNVTVIVALEEE
B8: LC3A_3_1560 (protein)
chain: MEEEKKKALEALKEAGKSEEVIKKAKELLEELEEKGYYEAAKEAIEELLELKDASDEILLDFLEEVLNYVKNEDLDEEEVIKKIKELARIAKNESEIIEL
B9: LC3A_28_989 (protein)
chain: SEDQKAADAFLAEAKEAAAAGEATVLVLKVSKTATEEDIEKIVETLKEAAEVLKDVPGAAIVIDLESGVAQEHIDKLADAAEEVEEKYPNVTVILALDED
B10: LC3A_3_1842 (protein)
chain: LEEERKKAIEALKAAGHSQETIDAFQEALDALLEKGYEEAAKTFIKLMLELIDMPDELLLELAEEVLEYVETTDDSEEETKKKIEELAKLYKNEYEIEEL
B11: LC3A_free_46_2429 (protein)
chain: YVVEIDIDLLHEDEEVLKKAVEEIVAKAKEIAAKHGAEIKIETEISKLEDGSYFAEINITVTVDDKETAEKIANEIIDAIDEIAEKYDVSYIISVDISEA
B12: LC3A_62_2043 (protein)
chain: MYLATVDVDILAKDEEAAEKIYEEIKKKLEELKKKDPNIKYEVKLDKENKYVSVTVTYEAETLEEAEKKAQEIEDELDEILEKNEDLIKAALISREITKL
B13: LC3A_28_1230 (protein)
chain: SEIEEQIEEALKKAEEAKKEGKSEVITIKVSGKTTLEEAEKIAKKMEEIAELLKDLPKQHIIIDIERGVSQEVLDLLMKKAEEIEKKYPNVTVIFALEEE
B14: LC3A_28_1162 (protein)
chain: SAIEESIKAAFEELEKAIKEGKNGVITLKVPGDATEEDIERLIKALEEIAKKAEEHGINGILIDVDGGVKQEHIDRLAKAAEEIEKKYPKVTIIIALSDE
B15: LC3A_3_1429 (protein)
chain: MEEILEEARKVLEEAGFDEETIEAVLELLRLALEAGEFEEARELIEELKKAKDVDSEDVLEAAREALRRIREEGVPIEEALREFIEEIRVLRLEKEIEEL
B16: LC3A_3_1389 (protein)
chain: FEEIKKETIEELKKFGKSEEVIKEAEKVLDALAEKGYLKAMETLLKEVKELKDASDELLLDFFRSVLEKVTTEDLTEEETVEFIKEEATVTKNESEIEEL
B17: LC3A_28_966 (protein)
chain: SRLEEEIEKALKEAKEAAEKGEAKTIVIKIPGDTTEEDTEKIIEALYEIAEILKDIKGAAILLDVEPGVSQEHIDKLADAAEEIEKKYPNVTVIIALEEE
B18: LC3A_3_1503 (protein)
chain: MEEILKELEEELKKMGFSEEVIKLAIEAMKLLLERGYEEAAETLRELLKEMKDLSNEAKLAFMKDVLELLKTSDLSEEELIAEIKAIATTTRNDAEIEEL
B19: LC3A_3_1712 (protein)
chain: MEELLKEAEEILKKQGRSEETIEAVLEALKALLEKGYEEAAKTFIELLKEMKDLSDEILLDFALDVKEFVETEDASEEEVIEFIKEEAETARNEQEIEEL
B20: LC3A_147_495 (protein)
chain: GVVDIDILVKDKEAAEKVVEEFERKVEELREEGYEVELEVKIEKISEDEYYVEIRIRIRAPTEEEEQAALDKVVSFIEELEEKYKDEILASLISVELEKR
B21: LC3A_28_739 (protein)
chain: SEIEKQLEEAIKEAEEAAKKGESAVIEITVPETADEEDIEKVIEALEKIAEILKDVKDQAIVVNVEGGVKQEHIDKLMDAGEEIEEKYPNVTVIFALDEE
B22: LC3A_147_501 (protein)
chain: YKVVVDIDLLTKNDEELVKELVKKIEEELKKKGYDVKSEIEFEKVDENTTYAHIKITVETETEEEAKEAADLILDLIDKFVEENKDKILGSLINVEIEKK
B23: LC3A_free_46_2356 (protein)
chain: VKAEIDIDLLHEDEEVLKKAVEEIVKKTKEIAKKYNLEVKIEVKLSKDEDGSYFAEIKITVKAKTKEDAEKFVNDLINAIDEITKKYGVAAIISYEIEDE
B24: LC3A_40_1916 (protein)
chain: MYEVSIDILADDPAATAAALDKAAAAAKAKIKSASGEKILAALDKMRAAAAAGEPAVATITGISEEEANTLVQILEAAEEALHAAGVRVAALISVEEEEE
B25: LC3A_28_1186 (protein)
chain: SALDENLEAALAEAKAAAAAGEPTVITITVPSTADEEDIEKVKETLEEVAEILKDIPGSAIIVDVERGVPQEHIKKLAEKAEEVEEKYPNVTVLIALEEE
B26: LC3A_13_346 (protein)
chain: TIKLEAETPEELLEKSKAALKAHPGETIEITVTIENEEEAEKVAEALKEIFDLAIEYGNKLNVTLKGKKDLVNYAALLIGSYLFEKLGQIDANVTTEEVE
B27: LC3A_3_1641 (protein)
chain: MEEEVEEMAKLLEEAGHSEEVIEAFRETAELLMERGYENALKTLIEKMKEMIDLPDDLLLDFLNDVLNYIKTNDDSEEEVIKKINEFATITKNEGEIIEL
B28: LC3A_free_0_2093 (protein)
chain: MKIEITVLLISNEPVSEEKRKELIEEAERIAERISEEKGLETEVEEKIIDGRLVLTLTIIGEGLSIDEALEIEDEIVERLEEKAKELGVDVTIFSSVEEL
B29: LC3A_3_1600 (protein)
chain: SAALVAAQLERLRAAGFSPEVLAAARRLLEALAAKGFEEAAKTATDELLEAKDLPDELLVATLERLLHVVETEDLSEEEVIKEIKEEFRVARLEAEIEEL

target: MAP1LC3A, Q9H492; experiment: median log2 fold change of GCK-ALFA target abundance (FLAG IP / Myc IP barcode read proportion) (log2 ratio); each designed protein is fused to an ALFA-tag nanobody in HEK293 cells to bring the named protein to FLAG-tagged glucokinase (GCK); Myc marks an untargeted standard; higher = target protein stabilised (more abundant); conditions: target protein: 3xFLAG-MCP-GCK-ALFA reporter; HEK293 landing pad (RPLP)
Outline: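 An ALFA-nanobody-fused binder library was recombined into HEK293 landing-pad cells and induced with 2 μg mL^−1 doxycycline. Cells were transfected with a plasmid expressing a FLAG-tagged target and a Myc-tagged standard. After 48 h, lysates underwent anti-FLAG and anti-Myc immunoprecipitation, and circular RNA barcodes were reverse transcribed, amplified and sequenced. Target abundance is the per-binder median log2 ratio of FLAG to Myc barcode read proportions. Barcodes needed ≥10^−7 proportion in both replicates, binders ≥3 barcodes per replicate, and a 10^−6 pseudocount was added; the two replicates were pooled.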

**Q.** How did the “median log2 fold change” value turn out when B1 was run?
**A.** 0.185

**Q.** Which “median log2 fold change” value does the source give for B2 here?
**A.** -0.465

**Q.** How did the “median log2 fold change” value turn out when B3 was run?
**A.** 0.143

**Q.** For B4, which “median log2 fold change” value is on record?
**A.** 0.118

**Q.** B5 was tested. Which “median log2 fold change” value did it give?
**A.** 0.0797

**Q.** B6 was tested. Which “median log2 fold change” value did it give?
**A.** 0.133

**Q.** Which “median log2 fold change” value does the source give for B7 here?
**A.** 0.153

**Q.** B8 was tested. Which “median log2 fold change” value did it give?
**A.** 0.272

**Q.** With B9 as the binder, how does the “median log2 fold change” value read?
**A.** -0.0291

**Q.** How did the “median log2 fold change” value turn out when B10 was run?
**A.** 0.23

**Q.** B11 was tested. Which “median log2 fold change” value did it give?
**A.** 0.154

**Q.** Which “median log2 fold change” value does the source give for B12 here?
**A.** 0.16

**Q.** B13 was tested. Which “median log2 fold change” value did it give?
**A.** -0.18

**Q.** Which “median log2 fold change” value does the source give for B14 here?
**A.** -0.0306

**Q.** For B15, which “median log2 fold change” value is on record?
**A.** 0.0462

**Q.** For B16, which “median log2 fold change” value is on record?
**A.** 0.228

**Q.** B17 was tested. Which “median log2 fold change” value did it give?
**A.** 0.24

**Q.** With B18 as the binder, how does the “median log2 fold change” value read?
**A.** 0.252

**Q.** B19 was tested. Which “median log2 fold change” value did it give?
**A.** 0.0663

**Q.** For B20, which “median log2 fold change” value is on record?
**A.** -0.312

**Q.** With B21 as the binder, how does the “median log2 fold change” value read?
**A.** 0.0231

**Q.** B22 was tested. Which “median log2 fold change” value did it give?
**A.** -0.19

**Q.** B23 was tested. Which “median log2 fold change” value did it give?
**A.** -0.15

**Q.** With B24 as the binder, how does the “median log2 fold change” value read?
**A.** 0.117

**Q.** For B25, which “median log2 fold change” value is on record?
**A.** 0.0531

**Q.** B26 was tested. Which “median log2 fold change” value did it give?
**A.** 0.201

**Q.** Which “median log2 fold change” value does the source give for B27 here?
**A.** 0.142

**Q.** For B28, which “median log2 fold change” value is on record?
**A.** -0.403

**Q.** With B29 as the binder, how does the “median log2 fold change” value read?
**A.** 0.216
